Test results reported in article PMC4336329 (PLoS ONE, 2015).
Out of some 310,000 compounds screened, about 14,000 (4.5%) showed an effect of 50% or more. Effects have a minus sign here. The list shows a part of the results.

target: human ether-à-go-go-related gene (hERG) potassium channel (human, UniProt Q12809); assay: primary screen, population patch clamp on CHO cells stably expressing hERG
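Note: peak tail current of the secondary pulse compared with the same well before compound.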

Sequence of human ether-à-go-go-related gene (hERG) potassium channel (Q12809 whole entry, looked up): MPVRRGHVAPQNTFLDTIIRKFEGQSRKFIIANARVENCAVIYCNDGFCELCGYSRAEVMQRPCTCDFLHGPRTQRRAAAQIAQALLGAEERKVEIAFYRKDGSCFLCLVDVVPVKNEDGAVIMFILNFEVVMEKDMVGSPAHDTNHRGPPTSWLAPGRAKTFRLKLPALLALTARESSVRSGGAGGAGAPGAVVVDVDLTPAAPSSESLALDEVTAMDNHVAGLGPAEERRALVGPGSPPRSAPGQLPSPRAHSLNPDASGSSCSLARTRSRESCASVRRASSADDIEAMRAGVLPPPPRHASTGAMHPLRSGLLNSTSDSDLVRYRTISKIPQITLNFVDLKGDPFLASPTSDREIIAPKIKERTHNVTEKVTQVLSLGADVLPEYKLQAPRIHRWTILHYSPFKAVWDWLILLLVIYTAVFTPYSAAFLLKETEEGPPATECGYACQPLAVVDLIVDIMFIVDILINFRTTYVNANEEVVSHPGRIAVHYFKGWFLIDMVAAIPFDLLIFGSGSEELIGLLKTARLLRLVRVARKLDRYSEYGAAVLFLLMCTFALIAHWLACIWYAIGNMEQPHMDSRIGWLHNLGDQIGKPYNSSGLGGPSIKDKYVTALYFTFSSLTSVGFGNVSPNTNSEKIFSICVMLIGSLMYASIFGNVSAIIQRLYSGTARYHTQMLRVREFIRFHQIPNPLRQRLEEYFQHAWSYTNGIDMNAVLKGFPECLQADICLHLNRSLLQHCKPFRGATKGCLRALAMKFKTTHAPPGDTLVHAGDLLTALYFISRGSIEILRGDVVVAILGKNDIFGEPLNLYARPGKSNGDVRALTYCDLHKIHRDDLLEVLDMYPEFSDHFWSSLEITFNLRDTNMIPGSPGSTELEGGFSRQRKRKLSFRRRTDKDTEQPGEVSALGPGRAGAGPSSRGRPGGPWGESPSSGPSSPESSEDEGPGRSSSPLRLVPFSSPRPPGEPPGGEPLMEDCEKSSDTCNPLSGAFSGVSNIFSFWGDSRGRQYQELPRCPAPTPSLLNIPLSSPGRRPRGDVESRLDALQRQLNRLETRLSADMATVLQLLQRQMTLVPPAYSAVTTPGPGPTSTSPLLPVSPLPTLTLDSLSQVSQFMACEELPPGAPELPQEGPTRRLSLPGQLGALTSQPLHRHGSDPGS

SMILES | hERG current change (%, negative = inhibition) at 10uM
COc1ccc(OC)c(-c2csc(N(C)C(=O)Cc3ccccc3)n2)c1 | 21.1%
Cc1ccc(NC(=O)Nc2cccs2)c(Cl)c1 | 11.2%
COc1ccc(N2C(=O)N3[C@H](c4ccc(Cl)cc4)[C@@H]4C(=O)N(C5CCCCC5)C(=O)[C@@H]4[C@]3(Cc3ccc(Cl)cc3)C2=O)cc1 | 4.9%
COC(=O)COc1ccc2c(c1)O/C(=C\c1cccc([N+](=O)[O-])c1)C2=O | 6.19%
Nc1cc(N)nc(SCC(=O)Nc2cc(S(=O)(=O)N3CCOCC3)ccc2Cl)n1 | 0.88%
CCSc1nc(-c2ccccc2)nc2c1CCCC2 | 7.26%
CCc1c(O)nc(SCc2ccccc2)n(C(C)CC)c1=O (stereo not shown) | 9.58%
CCOC(=O)C(=O)Nc1ccccc1C#N | 14.3%
O=C(Nc1ncc(Cc2cccc(Cl)c2)s1)C1CCCO1 (stereo not shown) | -12.5%
CCCc1nn(C)c(C(=O)Nc2ccc(C(C)(C)C)cc2)c1Cl | 17.7%
CCOC(=O)N/N=C\c1ccc([N+](=O)[O-])o1 | 15.1%
Cc1ccc(N2C(=O)CC(C3CCCO3)C2=O)cc1 (stereo not shown) | 14.6%
O=C1CCC(C(=O)N(CCO)Cc2ccccc2)CN1CCCN1CCOCC1 (stereo not shown) | 30.9%
Cc1cccc(-c2nc3ccc(C(=O)NCCN4CCN(C)CC4)cc3nc2-c2cccc(C)c2)c1 | -11.7%
CC(C)CC(NC(N)=O)C(=O)OCC(=O)NC(=O)NC1CCCC1 (stereo not shown) | 16.7%
Cc1n[nH]c(=S)n(/N=C/c2cccs2)c1=O | 17.9%
O=C(c1cnn2c(C(F)F)cc(-c3ccccc3)nc12)N1CCc2ccccc21 | 23%
O=C(CNC(=O)c1ccco1)Nc1ccc(Br)cc1 | 9.84%
COC(=O)c1ccc(-c2ccco2)n1Cc1cc(C)ccc1C | 5.05%
COC(=O)C1=C(N)Oc2c(c(=O)oc3ccccc23)C1c1cccnc1 (stereo not shown) | -24.1%
CC(=O)c1ccc[n+](CC(=O)NC(C)c2ccccc2)c1.[Cl-] (stereo not shown) | 26.8%
Cc1ccc(C(=O)CC2(O)C(=O)N(Cc3ccccc3)c3ccccc32)o1 (stereo not shown) | -4.9%
CCOC(=O)c1sc(N/N=C/c2cccc(C)c2)nc1C | 2.35%
O=C(c1cccnc1)N1CCN(C(=O)c2cccc(Cl)c2)CC1 | 22.4%
CC(=O)CN1C(=O)NC(c2ccccc2)(c2ccccc2)C1=O | -26.8%
